# The list shows a part of the results.
# How the values were obtained:
# HSkMC = human skeletal muscle cells; assay: cytotoxicity call (relative viability < 0.9); conditions: 10 µM
# HepG2 = assay: cytotoxicity call (relative viability < 0.9); conditions: 10 µM
# S. aureus RN4220 = assay: growth inhibition call (relative growth <= 0.2); conditions: 50 µM
Compound,cytotoxicity call (HSkMC),cytotoxicity call (HepG2),growth inhibition call (S. aureus RN4220)
CC(C)(C)NC(=O)[C@@H]1CN(Cc2cccnc2)CCN1C[C@@H](O)C[C@@H](Cc1ccccc1)C(=O)N[C@@H]1c2ccccc2C[C@@H]1O,inactive,inactive,inactive
Cc1noc(C)c1S(=O)(=O)Nc1ccc2c(c1)CC(=O)N([C@H](C)CO)C[C@H](C)[C@H](CN(C)C(=O)NC1CCCCC1)O2,inactive,inactive,inactive
COc1ccc(S(=O)(=O)N(C)C[C@H]2Oc3c(NC(=O)Nc4cccc5ccccc45)cccc3C(=O)N([C@H](C)CO)C[C@@H]2C)cc1,inactive,active,inactive
CCCc1nc2c(C)cc(-c3nc4ccccc4n3C)cc2n1Cc1ccc(-c2ccccc2C(=O)O)cc1,inactive,inactive,inactive
C[C@@H]1CN([C@H](C)CO)C(=O)Cc2cc(NC(=O)NC3CCCCC3)ccc2O[C@H]1CN(C)Cc1ccc(C(=O)Nc2ccccc2N)cc1,inactive,inactive,inactive
CC(C)NC(=O)Nc1ccc2c(c1)CC(=O)N([C@@H](C)CO)C[C@@H](C)[C@H](CN(C)Cc1ccc(Oc3ccccc3)cc1)O2,inactive,inactive,inactive
COc1cccc(S(=O)(=O)N(C)C[C@@H]2OCc3cnnn3CCCC(=O)N([C@H](C)CO)C[C@H]2C)c1,inactive,inactive,inactive
N#CCn1ccccc1=O,inactive,inactive,inactive
O=S(=O)(NCC[C@@H]1CC[C@@H](NS(=O)(=O)c2cccc(Cl)c2)[C@@H](CO)O1)c1cccc(F)c1,inactive,inactive,inactive
COc1ccc(CN(C)C[C@@H]2OCCCC[C@@H](C)Oc3ccc(NC(=O)Nc4c(C)noc4C)cc3C(=O)N([C@@H](C)CO)C[C@H]2C)cc1,inactive,inactive,inactive
